Drawing on publication PMC13451150, this text covers binding for three substances.

Protein sequences, listed by entry. Tags and fused reporters are not part of them. Residues count along the entry.
UniProt Q9UGP4: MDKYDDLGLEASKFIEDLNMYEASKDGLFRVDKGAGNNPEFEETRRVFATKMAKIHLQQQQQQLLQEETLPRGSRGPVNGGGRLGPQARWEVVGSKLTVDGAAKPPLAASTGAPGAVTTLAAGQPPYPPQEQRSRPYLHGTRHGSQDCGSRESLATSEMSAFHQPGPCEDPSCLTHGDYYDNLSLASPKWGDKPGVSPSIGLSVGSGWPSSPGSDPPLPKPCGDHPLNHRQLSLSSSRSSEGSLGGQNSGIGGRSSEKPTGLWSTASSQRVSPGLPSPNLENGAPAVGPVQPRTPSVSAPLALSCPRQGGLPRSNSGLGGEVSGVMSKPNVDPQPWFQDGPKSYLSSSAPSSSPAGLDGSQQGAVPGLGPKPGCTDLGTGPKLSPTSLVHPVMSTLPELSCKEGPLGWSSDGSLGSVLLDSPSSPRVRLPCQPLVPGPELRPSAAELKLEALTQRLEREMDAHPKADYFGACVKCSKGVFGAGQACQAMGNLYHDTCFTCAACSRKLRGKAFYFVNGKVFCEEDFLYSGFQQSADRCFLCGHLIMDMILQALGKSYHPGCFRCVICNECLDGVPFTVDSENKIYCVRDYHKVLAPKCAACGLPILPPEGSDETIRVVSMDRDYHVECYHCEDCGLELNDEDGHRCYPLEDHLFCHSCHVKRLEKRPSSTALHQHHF
UniProt Q9NZQ7, residues 19-290: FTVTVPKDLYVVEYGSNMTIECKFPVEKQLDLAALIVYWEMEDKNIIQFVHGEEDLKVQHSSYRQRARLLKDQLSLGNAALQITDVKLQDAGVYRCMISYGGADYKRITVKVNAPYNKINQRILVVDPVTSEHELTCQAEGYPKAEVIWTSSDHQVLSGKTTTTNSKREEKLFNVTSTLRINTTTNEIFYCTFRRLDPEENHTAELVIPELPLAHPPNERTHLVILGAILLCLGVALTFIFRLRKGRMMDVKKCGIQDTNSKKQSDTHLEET
UniProt Q9Y297: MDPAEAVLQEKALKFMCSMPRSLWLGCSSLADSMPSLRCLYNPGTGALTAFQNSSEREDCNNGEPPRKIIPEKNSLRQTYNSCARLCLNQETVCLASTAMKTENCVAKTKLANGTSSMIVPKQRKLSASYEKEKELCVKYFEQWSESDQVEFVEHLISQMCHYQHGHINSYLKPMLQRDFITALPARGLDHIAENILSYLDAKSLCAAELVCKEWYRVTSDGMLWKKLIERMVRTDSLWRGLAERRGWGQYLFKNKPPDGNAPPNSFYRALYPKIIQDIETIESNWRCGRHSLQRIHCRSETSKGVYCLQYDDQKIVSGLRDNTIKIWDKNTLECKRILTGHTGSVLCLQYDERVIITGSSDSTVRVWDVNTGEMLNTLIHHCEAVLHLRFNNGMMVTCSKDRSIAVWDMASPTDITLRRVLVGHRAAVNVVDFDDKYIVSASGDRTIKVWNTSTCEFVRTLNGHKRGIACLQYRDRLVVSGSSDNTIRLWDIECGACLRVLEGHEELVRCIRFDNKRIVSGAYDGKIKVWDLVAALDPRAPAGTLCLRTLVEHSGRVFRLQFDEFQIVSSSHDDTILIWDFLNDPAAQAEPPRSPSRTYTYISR
UniProt Q9Y4X5: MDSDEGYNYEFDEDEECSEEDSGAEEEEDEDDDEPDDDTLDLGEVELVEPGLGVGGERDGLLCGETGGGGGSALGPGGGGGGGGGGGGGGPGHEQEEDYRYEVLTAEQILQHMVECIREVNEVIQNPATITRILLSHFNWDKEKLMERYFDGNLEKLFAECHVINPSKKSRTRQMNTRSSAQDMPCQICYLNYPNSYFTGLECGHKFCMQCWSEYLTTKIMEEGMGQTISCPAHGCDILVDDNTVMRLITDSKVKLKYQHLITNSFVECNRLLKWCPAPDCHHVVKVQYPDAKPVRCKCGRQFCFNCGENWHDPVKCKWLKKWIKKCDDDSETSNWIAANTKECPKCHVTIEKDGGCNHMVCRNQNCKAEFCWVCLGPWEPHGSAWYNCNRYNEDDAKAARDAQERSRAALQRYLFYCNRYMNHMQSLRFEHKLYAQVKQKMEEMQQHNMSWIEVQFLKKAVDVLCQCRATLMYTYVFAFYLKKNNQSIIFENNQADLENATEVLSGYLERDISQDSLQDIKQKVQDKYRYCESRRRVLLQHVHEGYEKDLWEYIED

Results are given in words; binding and its absence hold for the method and conditions named. For some assays here: In cells and extracts the contact can be indirect. Some results given as binding are weak or reduced against the parent protein; the word gives no strength.

Experiment [1] deals with LIMD1 (human (endogenous in A549)) (UniProt Q9UGP4). Kind of experiment: co-IP; endogenous LIMD1 immunoprecipitated from A549 Cas9 and LIMD1-/- C5 lysates; inputs and elutions immunoblotted. (In general: Immunoblotting shows a protein as a band on a membrane.)
In experiment [2] the target is PD-L1 (human (endogenous in SAEC)) (UniProt Q9NZQ7). Kind of experiment: proximity ligation; SAEC transfected with Scr or LIMD1 siRNA, 0.5 ng/ml IFNγ for 24 h, fixed and permeabilised; mouse anti-PD-L1 and rabbit anti-ARIH1; NaveniFlex Cell MR kit; foci per cell counted.
For a further experiment, the target named is HA-PD-L1 (UniProt Q9NZQ7). Kind of experiment: co-IP; HA-PD-L1 transfected into A549 Cas9 and LIMD1-/- cells; NP-40 lysis buffer; antibody overnight at 4°C, Protein G Mag Sepharose beads; immunoblot.
The target of the next experiment is GST-LIMD1 (UniProt Q9UGP4). Nature of the experiment: pull-down; GST-LIMD1, GST-VO or beads alone on glutathione Sepharose; purified 6His-ARIH1 added; PBS + 0.1% Triton X-100 + 5% glycerol, overnight at 4°C; eluted with 50 mM reduced glutathione; immunoblots of GST and 6His-tag; both purified.

Turning to “β-TrCP (from UniProt Q9Y297 1-605) (enzyme)”, the binding result in experiment [1] is given as “no binding”.
Take “ARIH1 (from UniProt Q9Y4X5 1-557) (enzyme)”: the binding result (in experiment [2]; in experiment [1]; with HA-PD-L1) was “binds” throughout.
Regarding “6His-ARIH1 (from UniProt Q9Y4X5 1-557) (enzyme)”, the binding result in the experiment with GST-LIMD1 was “binds”.
